The record followed here is the supplement of paper PMC10126150.

Sequences with one replicate were seen in a single cluster, so their values are uncertain.

For the data set, the system named is ATP. Nature of the data set: switch fluorescence ratio, 500 uM ATP over buffer (Cy3 cluster intensity, sum of 5 cycles each) (fold (ratio)); higher = stronger signal-on switching upon ATP binding; sequences stand for … in TCGTCGGCAGCGTCAGATGTGTATAAGAGACAGTTTTTTTTTTTTTTTTTTTTTTTTT…TC. Conditions: aptamer strand: ATP DNA aptamer (quencher-CACCTGGGGGAGTATTGCGGAGGAAGG + anchor), 100 nM annealed; ATP concentration: 500 uM; one replicate. The method in brief: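 Clusters with intensities outside 100-1000 RFU were excluded. The remaining Cy3-labelled switching-strand clusters on a modified Illumina MiSeq flow-cell had been annealed to 100 nM quencher-labelled ATP aptamer and imaged in selection buffer, then after 15 min with 500 uM ATP at 22 °C, for five cycles separated by NaOH stripping and re-annealing. The fluorescence ratio, averaged per switch-domain sequence, is each cluster's summed target-cycle Cy3 intensity over its summed buffer-cycle Cy3 intensity.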
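Also: ATP exposure 15 min at 22 °C before imaging.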

As for AGCGCCTCGT, the switch fluorescence ratio came to 1.01. The result for CGAAGAGCGG reads 0.988; that for GTCAGCAAGC, 3.47; that for ATTGCTGAAT, 1.02. The result for TTAGAAGTCT reads 0.957; that for TATGGATCTC, 1.01. As for CATCCTGAAA, the switch fluorescence ratio is 1.05. For the sequence CGGTATATGC, the switch fluorescence ratio was 1.12. As to TATAAGACCT, the switch fluorescence ratio amounted to 1.38. The figure for CGGAGCGCAG is 1.09; for CTCTGGCGTC it is 1.02. The result for CCAACCAGTG reads 2.33; that for CGTAGAGTTG, 1; that for CGTGTTGATG, 0.984. On to CTTGAGGTGG, for which the switch fluorescence ratio was determined as 1.03. The figure for ACGCTATGAT is 1.2; for TCAAAGTTCT it is 0.96. Turning to GATACTTATA, the switch fluorescence ratio was found to be 1. The result for TTAGAATCCA reads 0.96; that for CCGGTGCAGG, 1.28; that for AGTCTATGA, 1. The result for CGTTTCATTG reads 1.13; that for CTAATTGGCT, 0.956. Take AAGCTGGCCC: the switch fluorescence ratio came to 1.03.

Take GCGCGGACGA: the switch fluorescence ratio amounted to 1.05.

As to TGCGAGGGAA, the switch fluorescence ratio was found to be 1.16. Consider CGACGGCGCG, for which the switch fluorescence ratio is 1.05. The figure for GGGAAACGTA is 1.02.

AGAGCAAAAT: the switch fluorescence ratio is 1.15. In the case of AACCACTCTG, the switch fluorescence ratio came to 1.05. With TCGATCATT, the switch fluorescence ratio came out at 0.941. In the case of GCACACATGC, the switch fluorescence ratio amounted to 1.01.

With TTGTTTACT, the switch fluorescence ratio came out at 0.98. Take AAGCAGGTTT: the switch fluorescence ratio came out at 1.02.

With TTCTTGTTTC, the switch fluorescence ratio was found to be 0.949. The result for TGCGTTATT reads 0.959; that for ATCGTCGCTC, 0.999; that for CCAAGATAGA, 1.06. On to GCTCCTGAAG, for which the switch fluorescence ratio came to 1.08. As to TTAAGAACGT, the switch fluorescence ratio was found to be 0.963. The result for TTAACAACA reads 1.05; that for CAGTTGATAC, 1.48. Regarding GCTCGCTCGA, the switch fluorescence ratio was 1.05. The result for ACTTCGACAT reads 1.32. GTGCTAGAAA: the switch fluorescence ratio is 1.01. Regarding CCAAAAGAGT, the switch fluorescence ratio is 0.997.

For AGATACGGA, the switch fluorescence ratio is 1.08.

Take GAAAGTGAGG: the switch fluorescence ratio was 1.02. Regarding TTTCGAGCC, the switch fluorescence ratio was determined as 1.01.

Turning to CGAGTTTACA, the switch fluorescence ratio was found to be 0.992. For CATGCCGCTG, the switch fluorescence ratio amounted to 1.07.

Turning to TGTGTGGACG, the switch fluorescence ratio turned out to be 0.999. With GGTCACAAAT, the switch fluorescence ratio is 0.994.

Take ATTTTATTGC: the switch fluorescence ratio amounted to 0.922. The result for CGACATAACG reads 1.07.

Consider AAGATTCGGT, for which the switch fluorescence ratio stood at 0.951. The result for ATTTAATCAT reads 0.972; that for TTCACCACCG, 1.06; that for ATTGCGCATT, 1.03.

CGTCCGCGG: the switch fluorescence ratio is 5.18. The result for AATGTTAGGG reads 0.992. The figure for AGCCATTTAC is 1.26; for TTGGTCTAGC it is 1.03. The figure for AGAAGCTCAT is 0.985; for TTGCTTCGAG it is 0.944; for CGGTTCATTG it is 1.01. On to GTCGTTGAAG, for which the switch fluorescence ratio was determined as 0.996.
